Measured values: PubChem BioAssay (NCI)
Values joined by “and” are separate entries in the source; they are usually repeats but may differ in a detail not shown here. Identical values can stand only once.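 Values below derive from 48-hour exposures of cells grown in 96-well plates, with endpoints linearly interpolated between the two concentrations bracketing the appropriate inhibition level. Here, GI50 denotes the concentration required for 50% inhibition of growth. TGI: concentration producing complete growth inhibition.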

System: NCI-H322M lung
Test: growth of human tumour cells (NCI), 48 h

Row | SMILES | TGI | GI50
1 | O=C1C=C2SC3C[C@@]24CC1(O)[N+]1=c2c4c(c(O)c4c2=C(C=N4)CC1)N3 | 2.86 µM | –
2 | Cc1ccccc1NC(=O)C(=O)C(C(=O)c1ccccc1F)C1OC(=O)c2ccccc21 (stereo unspecified) | 78.5 µM | –
3 | COc1ccc(/C(=C(\c2ccccc2)[N+](=O)[O-])c2ccc(OCCN3CCCC3)cc2)cc1 | 14.6 µM | 4.49 µM
4 | O=[N+]([O-])c1ccc(CSC2=C(c3ccc(Cl)cc3)S/C(=C3\SC(SCc4ccc([N+](=O)[O-])cc4)=C(c4ccc(Cl)cc4)S3)S2)cc1 | > 100 µM | –
5 | N/N=C1/C(=O)N(c2ccc(Cl)cc2)C(=O)C(=O)C1c1nc2ccccc2s1 (stereo unspecified) | > 100 µM | –
6 | CCOC(=O)C1=C(C)N(NC(=O)Nc2ccccc2)C2(N)N(NC(=O)Nc3ccccc3)C(C)=C(C(=O)OCC)C12C#N (stereo unspecified) | 61.8 µM | –
7 | COc1cc2c3c(c4cc(OC)c(OC)cc4c2cc1OC)CN1CCC[C@H]1C3 | 0.439 µM and 0.861 µM | 0.0433 µM and 0.0103 µM
8 | CC1(C)C2CC(=O)C1(C)C(OCc1ccccc1)C2Br (stereo unspecified) | > 100 µM | 49.9 µM and > 100 µM
9 | CC/C(=C/c1ccc(OC)cc1)[N+](=O)[O-] | 23.6 µM | 10.7 µM
10 | COc1ccc2c(c1O)[C@@]13CCCC=C1[C@@H](C2)N(C)CC3 | > 100 µM | –
11 | COc1cccc(NC(=O)/C(CS(=O)(=O)CCC(C(C)=O)C(C)=O)=N\NC(C)(C)C)c1 | > 100 µM | –
12 | CCOC(=O)/C(C(=O)c1ccc[nH]1)=C1/CCCN1C | > 100 µM | –
13 | CC[C@H](C)[C@H](NC(=O)CN(C)C)C(=O)N(C)[C@H](C[C@@H](OC(C)=O)c1nc(C(=O)NC23C4C5C2C2C3C4C52C(=O)OC)cs1)C(C)C (stereo partly specified) | > 33.2 µM | 1.3 µM
14 | CC(C)C(Sc1nc(N)nc2nc[nH]c12)C(=O)O (stereo unspecified) | > 100 µM | –
15 | Cc1c2ccncc2c(C)c2c1[nH]c1ccc(O)cc12 | 345 ng/mL | 21.4 ng/mL
16 | COC(OC)c1cccc2c1C(=O)CCC1(CC2)OCCCCO1 | > 100 µM | –
17 | COc1ccc2cc(CNCCCCCCNC(=O)Nc3cccc4ccccc34)ccc2c1 | > 100 µM | –
18 | C#C[C@]1(O)CC[C@H]2[C@@H]3CCC4=C/C(=N/OC(=O)c5cccc6cc7ccccc7nc56)CC[C@@H]4[C@H]3CC[C@@]21CC | > 100 µM | –
19 | CCOC(=O)c1cccc(N=NNc2cccc(C(=O)OCC)c2)c1 | > 100 µM | –
20 | COc1cc2c(cc1O)CCN[C@@]21CS[C@H]2c3c(OC(C)=O)c(C)c4c(c3C(COC1=O)N1C2C2NC(Cc3cc(C)c(OC)c(O)c32)[C@@H]1O)OCO4 (stereo partly specified) | – | 0.000459 ng/mL and 4.5 ng/mL
21 | COc1cc(O)c(C(=O)C2Cc3ccccc32)c(OC)c1 (stereo unspecified) | > 100 µM | –
22 | NC1CC(=O)c2c(I)sc(I)c21 (stereo unspecified) | 48.9 µM | –

Row | SMILES | TGI | GI50
23 | COc1ccc(/C=C\c2cc(OC)c(OC)c(OC)c2)cc1NC(=O)/C=C/c1cc(OC)c(OC)c(OC)c1 | > 100 µM | 9.55 µM
24 | CCn1c(=O)nc2n(-c3ccc(SC)cc3)c3ccccc3nc-2c1=O | > 100 µM | –
25 | Clc1ccc(Cc2nc3cc(Cl)c(Cl)cc3n2CC2CCCN3CCCCC23)cc1 (stereo unspecified) | 25.7 µM | –
26 | CCc1nnc2sc(-c3ccc(-c4ccccc4[N+](=O)[O-])o3)nn12 | > 100 µM | –
27 | O=C(OC1C#CCSCC#C/C=C\1)c1ccc2c(c1)C(=O)c1ccccc1C2=O (stereo unspecified) | > 100 µM | –
28 | CC1=Nc2ccccc2S/C1=C1/C=NC(=NC#N)N=C1C(=O)Nc1cccc(Cl)c1 | > 100 µM | –
29 | CC1(C)OCC(/C=C\C(O)CC2(C)OCCO2)CO1 (stereo unspecified) | > 100 µM | –
30 | CC(C)(C)n1cc(-c2ccnc(NCCCNS(=O)(=O)c3cccc4ccccc34)c2)c(-c2cccc(O)c2)n1 | 7.31 µM | 2.66 µM
31 | CC(C)(c1ccc(C=O)o1)c1ccc(C(C)(C)c2ccc(C=O)o2)o1 | > 100 µM | –
32 | C/C(=C\COP(=O)(O)OP(=O)(O)O)CC/C=C(\C)CNc1c(F)c(F)c(F)c(F)c1F | > 100 µM | –
33 | Cc1c(CCCl)c(Cl)n2c(nc3ccccc32)c1C#N | 3.05 µM | –
34 | CCOC(=O)Nc1cc2c(c(N)n1)N=C(c1ccc(Cl)cc1Cl)CN2 | 27.5 µM | –
35 | Cc1ccc(C)c(N2CCN(c3ccncc3N)CC2)c1 | > 100 µM | 44.5 µM
36 | O=C1c2ccccc2C(=O)c2c1ccc1c3ccccc3n(-c3ccccc3)c21 | 43.3 µM | –
37 | CCOC(=O)c1c(NS(=O)(=O)c2ccccc2)sc2c1CCCC2 | > 100 µM | –
38 | NC1=Nc2ncccc2C(=O)NN1 | > 10 µM | –
39 | CCNC(=O)O/N=C1\CCC2[C@@H]3CC=C4C[C@@H](OC(=O)NCC)CC[C@]4(C)C3CC[C@]12C (stereo partly specified) | 10.8 µM | –
40 | NP1(Oc2ccc(F)cc2)=NP(N)(Oc2ccc(F)cc2)=NP(Oc2ccc(F)cc2)(Oc2ccc(F)cc2)=N1 (stereo unspecified) | 15.2 µM | –
41 | CN1N=C(c2ccncc2)OC1c1ccc(C(F)(F)F)cc1 (stereo unspecified) | > 100 µM | –
42 | COc1ccc(N2C(=O)[C@@H]3[C@@H]4CC(C)CC[C@@H]4c4c([nH]c5ccccc45)[C@@H]3C2=O)cc1 (stereo partly specified) | 86.9 µM | –
43 | COc1cc2c(c(O)c1OC)C(O)C1CCC(=O)N1C2c1ccc2c(c1)OCO2 (stereo unspecified) | > 100 µM | –
44 | Cc1cccc(NC(=S)NNC(=O)c2cc(-c3ccccc3)nc3ccccc23)c1 | 97.3 µM | –

Row | SMILES | TGI | GI50
45 | CC1=C(\C=C/C(C)=C/C=C/C(C)=C/C=C/C=C(C)\C=C\C=C(C)/C=C/C2=C(C)CCCC2(C)C)C(C)(C)CCC1 | > 100 µM | –
46 | COc1cc([C@@H]2c3cc4c(cc3[C@@H](OC3OC5COC(C)OC5C(O)C3O)[C@H]3COC(=O)[C@H]23)OCO4)cc(OC)c1O (stereo partly specified) | 141 µM and 500 µM and 459 µM | –
47 | C=CC[PH+](c1ccccc1)c1ccccc1.C=CC[PH+](c1ccccc1)c1ccccc1.[Pt+2].[S-]c1nc2ccccc2[nH]1.[S-]c1nc2ccccc2[nH]1 | 6.1 µM | 2.1 µM
48 | COc1ccc2c(Cl)cc(NC(=S)Nc3ccccc3)nc2c1 | > 100 µM | –
49 | O=C(/C=C/c1ccco1)Nc1ncc(Cc2cc(Cl)ccc2Cl)s1 | > 100 µM | 0.492 µM
50 | N#C/C(=C/c1ccc([N+](=O)[O-])o1)c1ccccc1 | > 100 µM | –
51 | O=C(O)COc1c(Cl)cc(Cl)c(C(c2c(Cl)cc(Cl)c(OCC(=O)O)c2Cl)C(Cl)(Cl)Cl)c1Cl | 48.1 µM | –
52 | O=C(C=P(c1ccccc1)(c1ccccc1)c1ccccc1)c1ccccc1-c1ccccc1C(=O)C=P(c1ccccc1)(c1ccccc1)c1ccccc1 | 0.157 µM | –
53 | O=C1c2ccc3c4c(ccc(c24)C(=O)N1CCCCO)C(=O)N(CCCCO)C3=O | 7.33 µM | 2.18 µM
54 | Cc1cc2nc3c(N)nn(CCCN(C)C)c3nc2cc1C | > 100 µM | –
55 | COc1cc2c(c3oc4c(O)cccc4c(=O)c13)CC(C(C)(O)CCl)O2 (stereo unspecified) | 20.8 µM | –
56 | COc1cc(/C=N/NC(=O)c2cnn3c2NC(c2ccccc2)C3)ccc1OCc1ccccc1 (stereo unspecified) | 22.2 µM | 2.02 µM
57 | O=C(Cn1c(=O)oc2ccccc21)N(c1ccccc1)c1ccccc1 | > 100 µM | –
58 | C=CCSC1=N/C(=C\c2ccc(C)cc2)C(=O)N1CC=C | > 100 µM | –
59 | CC1=C(C(=S)Nc2ccc(Cl)c(C(=O)OC(C)C)c2)SCCO1 | 72.9 µM | –
60 | COc1cccc(/C=C\C(=O)c2ccccc2)c1 | 30.9 µM | 14.9 µM
61 | COC1=CC(=O)[C@@]2(C)C(C)[C@H](c3ccccc3)[C@H]2C1=O (stereo partly specified) | > 100 µM | –
62 | Cc1ccc2c(c1)CC1(Cc3cc(C)ccc3C1=O)C2=O | > 100 µM | –
63 | CCc1ccc([OH2+])c(C(=O)[O-])c1.CCc1ccc([OH2+])c(C(=O)[O-])c1.CCc1ccc([OH2+])c(C(=O)[O-])c1.CCc1ccc([OH2+])c(C(=O)[O-])c1.[Cu+2].[Cu+2] | 45.2 µM | 21.3 µM
64 | CC(=O)CC(O)(C(F)(F)Cl)C(F)(Cl)Cl (stereo unspecified) | > 10 µM | –
65 | COc1cc2c(cc1C)NC(=O)/C2=C/c1c(Cl)[nH]c2ccccc12 | 25.8 µM | –
66 | O=[N+]([O-])C(/C=C(\Cl)[N+](=O)[O-])=C(N1CCOCC1)N1CCOCC1 | > 100 µM | –
